Laboratory results reported in PubChem BioAssay AID624417 (National Center for Advancing Translational Sciences (NCATS), 2012).
The campaign covered roughly 410,000 compounds. About 6,400 (1.6%) were called active. This list was built around the results that the source calls inconclusive (neither active nor inactive); the mix of calls is not that of the screen. Calls come from the whole dose curve; as a rule, active = well fitted inhibition curve with a large enough effect; inconclusive = small, poorly fitted or top-dose-only effect; inactive = no such curve, though single readings can be large or run the other way. No potency is given beside an inconclusive call; the fits are too rough.

Target: Glucagon-like peptide 1 receptor (Homo sapiens) (UniProt P43220)
Sequence of UniProt P43220 (P43220 whole entry, looked up): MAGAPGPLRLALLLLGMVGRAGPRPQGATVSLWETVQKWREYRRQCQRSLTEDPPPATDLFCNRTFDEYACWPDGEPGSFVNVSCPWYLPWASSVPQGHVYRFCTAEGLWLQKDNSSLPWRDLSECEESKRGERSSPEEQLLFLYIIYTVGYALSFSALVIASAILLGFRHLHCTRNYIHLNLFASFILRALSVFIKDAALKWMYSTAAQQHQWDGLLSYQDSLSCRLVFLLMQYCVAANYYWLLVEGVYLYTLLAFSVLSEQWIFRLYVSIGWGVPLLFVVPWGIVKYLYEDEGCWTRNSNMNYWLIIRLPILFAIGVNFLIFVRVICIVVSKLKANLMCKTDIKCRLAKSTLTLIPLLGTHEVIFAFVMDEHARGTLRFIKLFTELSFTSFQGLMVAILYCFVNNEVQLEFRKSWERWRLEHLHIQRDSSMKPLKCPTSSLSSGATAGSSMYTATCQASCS
Assay: qHTS of GLP-1 Receptor Inverse Agonists (Inhibition Mode); note: nearly all actives have a fitted effect of over 55% in size
Conditions: HEK293 GLP-1R CRE-luciferase, luminescence, 24 h, GLP-1R form is constitutively active; activity change, negative = inhibition: at 38.3 µM (top of the series) unless noted
How it was run: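 Cells are plated, allowed 12 hours at 37 deg C, then treated with compounds for 24 hr before luciferase detection reagent is added and luminescence is read after 12 min at room temperature. The HEK293 line carries constitutively active GLP-1R with a cAMP-responsive reporter.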
% is set by controls: 0 for no effect and ±100 for the full control effect; potency is the fitted concentration of half-maximal effect; tags give direction and shape of the fitted curve.

| SMILES | Potency | activity change, negative = inhibition |
| --- | --- | --- |
| COc1ccccc1NC(=O)NCCC1=CCCCC1 | inconclusive [inhibitor, single point] | – |
| O=C(COc1cccc2c1CCN(Cc1ccc(Br)cc1)C2=O)NCc1ccco1 | inconclusive [inhibitor, single point] | – |
| CCOCCCNS(=O)(=O)c1ccc(NC(=O)C2CC(=O)N(c3ccc(C)cc3)C2)cc1 (centres undefined) | inconclusive [inhibitor, single point] | – |
| Cc1ccc(-c2nn(-c3ccccc3Cl)cc2C(=O)NCC2CCCO2)cc1 (centres undefined) | inconclusive [inhibitor, partial curve, poor fit] | – |
| CCc1cccc2c(C#N)cn(CCOc3ccccc3OC)c12 | inconclusive [inhibitor, partial curve, poor fit] | – |
| COc1ccc(-n2c(-c3ccc(Br)cc3)c[n+]3c2CCc2ccccc2-3)cc1 | inconclusive [inhibitor, partial curve, poor fit] | – |
| CC(C)(C)NNC(=S)Nc1cccc(F)c1 | inconclusive [inhibitor, full curve, poor fit] | – |
| C=C(C)C1CCC(C)=C1COC(=O)Nc1ccccc1 (centres undefined) | active: 8.91 µM | – |
| COC(=O)c1ccccc1NC(=O)CCCn1c(=O)c2cccn2c2cccnc21 | inactive | – |
| Cc1cccc(CSc2ccc(-c3ccco3)nn2)c1 | inconclusive [inhibitor, single point] | – |
| CN(C)c1ccc(Nc2ncnc3sc4c(c23)CCCC4)cc1 | inconclusive [inhibitor, single point] | – |
| CCOC(=O)C(Cc1c[nH]c2ccccc12)NC(=O)COc1ccc(CC)cc1 (centres undefined) | inconclusive [inhibitor, single point] | – |
| CCOC(=O)c1ccccc1N=N/C(C(C)=O)=C(/C)O | inactive | – |
| COc1ccccc1NC(=O)COc1ccccc1 | inactive | – |
| CCOC(=O)c1c(C)[nH]c(C)c1S(=O)(=O)N1CCC(C(=O)NCc2ccccc2Cl)CC1 | inactive | – |
| CCN(CC(=O)NCC(=O)Nc1ccc(Br)cc1C)Cc1ccccc1 | inconclusive [inhibitor, single point] | – |
| COc1ccc(C)cc1N(C)C(=O)CCc1nc(-c2ccccc2F)no1 | inconclusive [inhibitor, single point] | – |
| Cc1cccc(S(=O)(=O)c2c(N)n(Cc3ccco3)c3nc4ccccc4nc23)c1 | inactive | – |
| CC(C)(C)c1ccc(N/N=C(\C#N)S(=O)(=O)C(C)(C)C)cc1 | inconclusive [inhibitor, partial curve, poor fit] | – |
| O=C1C(c2ccc(F)cc2)N(CCc2ccccc2)C(=O)CN1C1CCCCCC1 (centres undefined) | inactive | – |
| COc1cc(CN2CCC(n3nccc3NC(=O)c3ccccc3OC)CC2)ccc1F | inconclusive [inhibitor, single point] | – |
| COc1cc(/C=N/NC(=O)C(=O)/C=C2\NC3(CCCC3)Cc3ccccc32)ccc1O | inconclusive [inhibitor, partial curve] | – |

| SMILES | Potency | activity change, negative = inhibition |
| --- | --- | --- |
| Cc1ccc2[nH]c(=O)c3cc(C(=O)NCCCN4CCC(C)CC4)sc3c2c1 | inactive | – |
| CCOC(=O)C1=CCC(c2ccc(F)cc2)N(S(=O)(=O)c2ccc(C)cc2)C1 (centres undefined) | inconclusive [inhibitor, single point] | – |
| O=C(Nc1ccccn1)C12CC3CC(C1)CC(C(=O)Nc1ccccn1)(C3)C2 | inconclusive [inhibitor, full curve] | – |
| COc1ccc(N(C(=O)c2cccnc2)S(=O)(=O)c2ccc(F)cc2)cc1 | inconclusive [inhibitor, single point] | – |
| CCN(C(=O)CSc1nc2ccccc2n1Cc1ccc(F)cc1Cl)c1ccccc1 | inconclusive [inhibitor, full curve, poor fit] | – |
| Cc1c(-c2ccccc2)sc2nc[nH]c(=S)c12 | – | inactive: 14.7% [at 7.66 µM] |
| Cc1ccc(C(=O)C2CCN(CC(=O)Nc3ccccc3C)CC2)cc1 | inconclusive [inhibitor, partial curve, poor fit] | – |
| Nc1nc(-c2ccc(Oc3ccccc3)cc2)cs1 | inconclusive [inhibitor, single point] | – |
| CN(C)CCSc1nc(-c2ccccc2)nc2c1CCCC2 | inconclusive [inhibitor, partial curve] | – |
| O=C(NCc1ccc(OC(F)(F)F)cc1)C1CC(c2cccc(F)c2)=NO1 (centres undefined) | inactive | – |
| Cc1ccc(-c2nnc(N3CCN(CCO)CC3)c3ccccc23)cc1 | inconclusive [inhibitor, single point] | – |
| C=CCNCCOCCOc1ccc(Cl)cc1C(C)(C)C | inconclusive [inhibitor, partial curve, poor fit] | – |
| CCCCNC(=O)CCCCC(=O)N/N=C/c1cccc(Cl)c1 | inactive | – |
| Cc1ccccc1-c1nn(-c2ccc(F)cc2F)cc1CNCC(C)O (centres undefined) | inconclusive [inhibitor, single point] | – |
| O=C(Nc1ccc(N2CCCC2)cc1)C(Cl)c1ccccc1 (centres undefined) | inactive | – |
| Cc1ccc(C)c(N2CCN(C(=O)CCCOc3cc(=O)n(C)c4ccccc34)CC2)c1 | inactive | – |
| CCOc1ccccc1-c1ccc(C(=O)NCc2ccccc2)o1 | inconclusive [inhibitor, partial curve, poor fit] | – |
| COCC(C)n1c(C)cc(C(=O)CN2C(=O)NC(Cc3c[nH]c4ccccc34)C2=O)c1C (centres undefined) | inconclusive [inhibitor, single point] | – |
| Cc1cc(Cl)ccc1OCc1nc(-c2ccc(O)cc2)n[nH]1 | inconclusive [inhibitor, single point] | – |
| Cc1ccc(Cl)c(OC(=O)c2nn(C(C)C)c(=O)c3ccccc23)c1 | inconclusive [inhibitor, single point] | – |
| COc1ccccc1-c1sc2cc3c(cc2c1C#Cc1ccccn1)OCO3 | inconclusive [inhibitor, partial curve, poor fit] | – |
| CCCOc1ccc(CNC(=O)c2[nH]c3cc(OC)ccc3c2Sc2ccccc2)cc1 | inactive | – |
